# Test results from PubChem BioAssay (NCATS).
# This is one part of the list. These are further read-outs of the screen, such as a control signal, another cell line or another target. No call is given for them. Compounds called inactive in the main read-out are mostly missing here. The note in brackets gives the kind of curve behind each potency; many fits are weak.
# Test: Cell-based coincidence reporter assay to measure PMP22 gene transcription in S16 Pmp22-F2sN cells - Confirmatory screen (AID 1508646)
# Conditions: S16 Schwann cells Pmp22-F2sN, dual luciferase, 24 h; measured here: FLuc reporter channel
# Procedure, shortened: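 Coincidence reporter read as sequential FLuc then NLuc luminescence (Nano-Glo Dual-Luciferase, 10 min each). Engineered S16 Pmp22-F2sN Schwann cells, 500-1,000 per well in DMEM/10% FBS, were exposed to compounds for 24 h, 37C.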
# Tags tell the direction and shape of the fitted curve.
row,SMILES,AC50
1,Cc1c(C(=O)Nc2ccccc2Cl)oc2ccc(S(=O)(=O)N3CCCCC3)cc12,"15.3 µM [falling, partial curve]"
2,COc1ccc(C2Sc3ccccc3NC3=C2C(=O)c2ccccc23)c(OC)c1OC (stereo not given),"4.85 µM [falling, full curve, poor fit]"
3,COc1ccc(NC(=O)CCS(=O)(=O)c2nc(-c3cccs3)cc(C(F)(F)F)n2)cc1,"10.9 µM [falling, partial curve]"
4,CCC(C)NC(=O)C1CCN(C(=O)c2cc3sccc3n2Cc2ccc(Cl)cc2)CC1 (stereo not given),"15.3 µM [falling, partial curve]"
5,Cc1cccc(Nc2c3c(nc4nncn24)CCC3)c1C,"0.485 µM [falling, full curve]"
6,CCCCCOc1ccccc1CN1C(=O)C(=O)c2cc(C)ccc21,"24.3 µM [falling, partial curve]"
7,Cc1cccc(CS(=O)(=O)c2ncc(Cl)c(C(=O)Nc3nc4ccc(F)cc4s3)n2)c1,"9.68 µM [falling, partial curve]"
8,Cc1ccc(CNC(=O)Cn2c(=O)n(-c3cccc(Cl)c3)c(=O)c3sc4ccccc4c32)cc1,"17.2 µM [falling, partial curve, poor fit]"
9,O=C(CCS(=O)(=O)c1ccccc1)N(Cc1cccnc1)c1nc2c(F)cccc2s1,"10.9 µM [falling, full curve]"
10,CCc1ccc(CNC(=O)CSc2c3c(nc4ccc(Cl)cc24)CCCC3)cc1,"15.3 µM [falling, single point]"
